Data: PubChem BioAssay AID540317 (National Center for Advancing Translational Sciences (NCATS), 2011)
Hit rate of the full screen: of about 390,000 compounds, about 2,200 (0.56%) were called active. The inconclusive results got no clear call from the source; some entries with a clear call stand among them for comparison. The call rests on the fitted dose curve; in most records, active means well fitted inhibition curve with a large enough effect; inconclusive means small, poorly fitted or top-dose-only effect; inactive means no such curve, though single readings can be large or run the other way. A potency beside an inconclusive call is a rough fit, not a confirmed value.
Further: nearly all actives have a fitted effect of over 70% in size.
Potency means the concentration at half of the fitted maximal effect; tags describe the fitted curve by direction and shape.

Each compound was assayed against Chromobox protein homolog 1 (Homo sapiens) (UniProt P83916) (assay: HTS for Inhibitors of HP1-beta Chromodomain Interactions with Methylated Histone Tails). Settings: AlphaScreen HP1-beta / biotin-H3K9me3 peptide binding; series mostly up to 114 µM.
UniProt P83916, sequence (P83916 whole entry, looked up): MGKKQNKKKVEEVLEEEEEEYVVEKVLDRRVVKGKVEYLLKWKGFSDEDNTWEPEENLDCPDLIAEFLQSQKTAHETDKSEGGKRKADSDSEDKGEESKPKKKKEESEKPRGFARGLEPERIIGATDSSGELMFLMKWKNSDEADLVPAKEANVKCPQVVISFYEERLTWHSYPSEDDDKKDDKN
In short: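 Compound inhibition of the preformed complex between 50 nM HP1-beta and 50 nM biotinylated H3K9me3 peptide was read by AlphaScreen. Buffer was PBS pH 7.4 with 0.01% Tween-20. Incubations ran 30 min at room temperature, with 10 ug/mL donor/acceptor beads.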
`O=C1C=CC(=O)N1CCCCCCCCCCN1C(=O)C=CC1=O` was tested, and the Potency was inconclusive: 2.51 µM [inhibitor, full curve]. With `COc1ccc(-c2n[nH]c(=S)n2N)c(OC)c1` the Potency was inconclusive: 31.6 µM [inhibitor, partial curve]. `Cc1ccc(C)c(NC(=S)Nc2ncccc2C)c1` was tested, and the Potency was inconclusive: 56.2 µM [inhibitor, partial curve, poor fit]. With `S=C(c1ccc(-c2ccc(Cl)c(Cl)c2)o1)N1CCOCC1` the Potency was inconclusive: 28.2 µM [inhibitor, single point]. `O=C(O)C1(Nc2ccc([N+](=O)[O-])cc2[N+](=O)[O-])CCCC1` was tested, and the Potency was “inactive”. In the case of `Cc1ccc(S(=O)(=O)NCCSCc2ccco2)cc1`, the Potency is reported as “inactive”. `COc1ccc(OCCN2CCOCC2)cc1` was tested, and the Potency was inconclusive: 15.8 µM [inhibitor, full curve]. For `COc1ccc(Br)cc1CNc1ccc2[nH]c(=O)[nH]c2c1`, the Potency was inconclusive: 35.5 µM [inhibitor, partial curve]. For `CCn1c(=O)cc(OCC(=O)NCc2ccc(F)cc2Cl)c2ccccc21`, the Potency was “inactive”. For `CCOCCCNC(=O)c1c(NC(=O)c2cc(=O)c3cc(C)c(C)cc3o2)sc2c1CCC2`, the Potency was “inactive”. With `Cc1ccc(C)c(NC(=O)CSc2nncn3c2cc2sccc23)c1` the Potency was “inactive”. For `O=C(CSc1nnc2scc(-c3ccccc3)n12)c1ccc2c(c1)OCCO2`, the Potency was “inactive”. `O=C(CSc1ncnc2ccccc12)c1ccco1` was tested, and the Potency was inconclusive: 28.2 µM [inhibitor, partial curve]. With `CCOC(=O)C1=C(Cc2ccc(Cl)cc2)C(=O)c2ccccc2C1=O` the Potency was active: 20 µM. With `CN(C(=O)c1nc(-c2ccccc2)n(-c2ccccc2)n1)C1CCS(=O)(=O)C1` (stereo unspecified) the Potency was “inactive”. With `N#CC1=C2SCN(Cc3ccco3)CN2C(=O)CC1c1c(F)cccc1Cl` (stereo unspecified) the Potency was inconclusive: 28.2 µM [inhibitor, full curve]. With `COC(=O)c1ccc(N=Nc2ccccc2)cc1` the Potency was inconclusive: 56.2 µM [inhibitor, partial curve, poor fit]. With `Cc1ccn2c(Nc3ccc4c(c3)OCO4)c(-c3ccco3)nc2c1` the Potency was inconclusive: 15.8 µM [inhibitor, full curve]. With `CN1Cc2c(N3CCOCC3)nc3sc(C(=O)c4ccc(Br)cc4)c(N)c3c2CC1(C)C` the Potency was inconclusive: 50.1 µM [inhibitor, single point]. With `O=C(Nc1ccc(Cl)cc1)Nc1csc([N+](=O)[O-])c1` the Potency was “inactive”. In the case of `COc1cccc(Cn2c(SCc3ccc(C(=O)N4CCC(C)CC4)cc3)nc3ccncc32)c1`, the Potency is reported as inconclusive: 11.2 µM [inhibitor, full curve, poor fit]. `COc1ccccc1CN1C[C@@H]2C[C@@H](c3ccc(Cl)cc3)N3CCC[C@@]23C1=O` was tested, and the Potency was inconclusive: 79.4 µM [inhibitor, single point]. For `COc1ccc2oc(C(=O)OCC(=O)Nc3ccc(NC(C)=O)cc3)c(C)c2c1`, the Potency was “inactive”. `CCOc1cc(/C=N/NC(=O)c2cccnc2)ccc1O` was tested, and the Potency was “inactive”. `CCOc1ccc(Nc2c(S(=O)(=O)c3ccc(C)cc3)cnc3ccccc23)cc1` was tested, and the Potency was “inactive”. `CCSc1oc(-c2cccs2)nc1S(=O)(=O)c1ccccc1` was tested, and the Potency was inconclusive: 89.1 µM [inhibitor, single point]. For `COc1ccc(/C=N/N2CCN(Cc3ccccc3)CC2)cc1`, the Potency was inconclusive: 50.1 µM [inhibitor, partial curve, poor fit]. `COc1ccc(CCNC(=O)Cn2c(C)c3cnn(-c4ccccc4)c(=O)c3c2C)cc1OC` was tested, and the Potency was “inactive”. In the case of `CCN1CCN(CC(O)COC(c2ccccc2)c2ccccc2C)CC1` (stereo unspecified), the Potency is reported as inconclusive: 15.8 µM [inhibitor, full curve, poor fit]. With `CCc1ccc(NC(=O)/C(C#N)=C/c2cc3ccc(C)cc3nc2N2CCOCC2)cc1` the Potency was “inactive”. `CC1NC(=O)NC1CCCCCC(=O)Nc1ccc(F)cc1` (stereo unspecified) was tested, and the Potency was inconclusive: 1.26 µM [inhibitor, full curve, poor fit]. For `Cc1ccc(N2CC(c3nnc(Cc4ccc(F)cc4Cl)o3)CC2=O)cc1` (stereo unspecified), the Potency was “inactive”. For `C=CCc1ccccc1OCC(O)CN1CCN(c2ccc(OC)cc2)CC1` (stereo unspecified), the Potency was inconclusive: 39.8 µM [inhibitor, single point]. For `O=[N+]([O-])c1cccc(-c2nc(-c3cccs3)c(-c3cccs3)[nH]2)c1`, the Potency was inconclusive: 63.1 µM [inhibitor, single point]. `Cc1ccc(-c2csc(=Nc3ccccc3)n2CCCO)cc1` was tested, and the Potency was inconclusive: 12.6 µM [inhibitor, full curve]. `O=C(CCc1nnc2n(Cc3ccc(F)cc3)c(=O)c3ccccc3n12)NCCCN1CCOCC1` was tested, and the Potency was “inactive”. In the case of `Cc1ccc(C)c(S(=O)(=O)N2CCN(CC(=O)NC(=O)NCc3ccco3)CC2)c1`, the Potency is reported as inconclusive: 70.8 µM [inhibitor, partial curve, poor fit]. In the case of `c1ccc(CCN(Cc2ccccc2)C2CCN(C3CCCC3)CC2)cc1`, the Potency is reported as inconclusive: 44.7 µM [inhibitor, partial curve]. With `O=[N+]([O-])c1ccc(N2CCN(Cc3ccc(Br)o3)CC2)cc1` the Potency was inconclusive: 20 µM [inhibitor, full curve, poor fit]. With `CCC(C)Nc1nc(-c2ccc3c(c2)NC(=O)CO3)cs1` (stereo unspecified) the Potency was “inactive”. `O=C(CC1CC2CCC1C2)NC1CCCCCCC1` (stereo unspecified) was tested, and the Potency was “inactive”. For `Cc1ccccc1CN1C[C@@H]2C[C@@H](c3cnc(N4CCOCC4)s3)N3CCC[C@@]23C1=O`, the Potency was “inactive”. For `Cc1noc(C)c1S(=O)(=O)Nc1ccc2c(c1)CC(=O)N([C@H](C)CO)C[C@H](C)[C@@H](CN(C)CC1CC1)O2`, the Potency was “inactive”. In the case of `O=S(=O)(NC1CCSc2ccccc21)c1ccccc1` (stereo unspecified), the Potency is reported as “inactive”. `CCOc1cc(/C=N/Nc2nnc(C)n2N)ccc1OC(C)=O` was tested, and the Potency was “inactive”. In the case of `COc1cccc(C2(C)NC(=O)N(CC(=O)Nc3ccc(N4CCOCC4)cc3)C2=O)c1` (stereo unspecified), the Potency is reported as “inactive”. In the case of `Fc1cc2[nH]c(=S)[nH]c2c(Br)c1N1CCSCC1`, the Potency is reported as inconclusive: 7.94 µM [inhibitor, full curve]. In the case of `COc1ccc2nc(N=NC3=C(O)CC(C)(C)CC3=O)sc2c1`, the Potency is reported as inconclusive: 56.2 µM [inhibitor, partial curve, poor fit]. For `Oc1c(Br)cc(CNC2CCCCC2)cc1Br`, the Potency was inconclusive: 70.8 µM [inhibitor, partial curve, poor fit]. In the case of `COc1ccc(NC(=O)Nc2c(O)ccc3ccccc23)cc1`, the Potency is reported as inconclusive: 79.4 µM [inhibitor, partial curve]. In the case of `CC(=O)c1c[nH]c(C(=O)Nc2ccc(N3CCCCCC3)cc2)c1`, the Potency is reported as inconclusive: 56.2 µM [inhibitor, partial curve, poor fit]. In the case of `COC(=O)Cc1csc(NC(=O)CSc2nncn2C)n1`, the Potency is reported as inconclusive: 89.1 µM [inhibitor, partial curve, poor fit]. For `Cc1ccc(C2C3=C(CC(C)(C)CC3=O)NC3=C2C(=O)c2ccccc23)cc1` (stereo unspecified), the Potency was inconclusive: 15.8 µM [inhibitor, partial curve, poor fit]. For `C=CCNC(=S)N1CCc2[nH]c3ccccc3c2C1`, the Potency was inconclusive: 79.4 µM [inhibitor, single point]. In the case of `CN=c1scc(-c2ccccc2F)n1/N=C(\C)c1cccnc1`, the Potency is reported as inconclusive: 28.2 µM [inhibitor, partial curve]. With `CC[C@]12c3[nH]c4ccc(OC)cc4c3CCN1C(=O)C(CC(=O)NCCCOC)C[C@@H]2C(=O)N1CCN(C(=O)C2CC2)CC1` (stereo partly specified) the Potency was “inactive”. `Cc1cc(C)n2ncc(C(=O)Nc3ccc(Cl)c(Cl)c3)c2n1` was tested, and the Potency was inconclusive: 15.8 µM [inhibitor, partial curve, poor fit]. In the case of `COc1cc2c(C(=O)N3CCOCC3)c(CSc3ccccc3)n(C)c2cc1Br`, the Potency is reported as inconclusive: 70.8 µM [inhibitor, partial curve]. For `Cc1cc(C)cc(NC(=S)/C(=C(\[O-])c2ccc(Cl)s2)[n+]2cccc(C)c2)c1`, the Potency was inconclusive: 56.2 µM [inhibitor, single point]. In the case of `O=C(CN1CCN(C2CCCCC2)CC1)Nc1cccc2ccccc12`, the Potency is reported as inconclusive: 22.4 µM [inhibitor, full curve]. In the case of `CC1NC(=O)NC1CCCCCC(=O)NCCc1ccccc1` (stereo unspecified), the Potency is reported as inconclusive: 3.98 µM [inhibitor, full curve, poor fit]. In the case of `COc1ccc(C(=O)NNC(=S)NC(=O)c2ccc(F)cc2)cc1Br`, the Potency is reported as inconclusive: 25.1 µM [inhibitor, partial curve, poor fit]. `O=[N+]([O-])c1ccc(Sc2ncccn2)c([N+](=O)[O-])c1` was tested, and the Potency was “inactive”. In the case of `c1ccc2c(c1)NCC1CCCN21` (stereo unspecified), the Potency is reported as inconclusive: 44.7 µM [inhibitor, partial curve]. For `COc1ccc(CCC(=O)NCc2nc3cccnc3n2Cc2ccccc2)cc1`, the Potency was “inactive”. With `Cc1cccc(Nc2nc(N)c([N+](=O)[O-])c(NCc3ccccc3)n2)c1` the Potency was inconclusive: 28.2 µM [inhibitor, partial curve, poor fit]. With `O=C(O)CCN1C(=O)c2ccc(NC(=O)CSc3ccccc3)cc2C1=O` the Potency was inconclusive: 39.8 µM [inhibitor, single point]. In the case of `Cc1ccc(-c2ccnc3nc(-n4cccc4)nn23)o1`, the Potency is reported as inconclusive: 4.47 µM [inhibitor, full curve, poor fit]. With `Cc1cc(C)c(-n2c(C)cc(/C=C3/NC(=O)NC3=O)c2C)c(C)c1` the Potency was inconclusive: 44.7 µM [inhibitor, partial curve, poor fit]. `CC(C)(C)c1ccc(-c2nnc3sc(-c4ccccn4)nn23)cc1` was tested, and the Potency was “inactive”. In the case of `COc1ccc(C)cc1S(=O)(=O)NCC(c1ccc(N(C)C)cc1)N1CCc2ccccc21` (stereo unspecified), the Potency is reported as inconclusive: 20 µM [inhibitor, full curve].
